Results on 29 molecules are retold here after PubChem BioAssay AID1745853 (National Center for Advancing Translational Sciences (NCATS), 2022).

The list shows a part of the results. These are further read-outs of the screen, such as a control signal, another cell line or another target. No call is given for them.

Holding throughout (assay): Primary Screen for Target Class Profiling of Small Molecule Inhibitors of Methyltransferases
The target of test [1] is Glycine N-methyltransferase (Homo sapiens) (UniProt Q14749). The conditions noted are these: purified enzyme, MTase-Glo SAH luminescence; measured here: GNMT inhibition; at 40 µM; stronger effect = lower value. The method, boiled down:
(§1)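 Each enzyme was assayed with SAM and its substrate. SAH formation detected by MTase-Glo luminescence; single-point 40 uM screen[…].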

Test [2] has as its target Guanidinoacetate N-methyltransferase (Homo sapiens) (UniProt Q14353). To be noted: purified enzyme, MTase-Glo SAH luminescence; measured here: GAMT inhibition; at 40 µM; stronger effect = lower value. The method, boiled down:
as §1

Test [3] deals with Histamine N-methyltransferase (Homo sapiens) (UniProt P50135). The conditions noted are these: purified enzyme, MTase-Glo SAH luminescence; measured here: HNMT inhibition; at 40 µM; stronger effect = lower value. The method, boiled down:
as §1

The target of test [4] is Nicotinamide N-methyltransferase (Homo sapiens) (UniProt P40261). The conditions noted are these: purified enzyme, MTase-Glo SAH luminescence; measured here: NNMT inhibition; at 40 µM; stronger effect = lower value. The method, boiled down: as §1
Test [5] deals with Phenylethanolamine N-methyltransferase (Homo sapiens) (UniProt P11086). The conditions noted are these: purified enzyme, MTase-Glo SAH luminescence; measured here: PNMT inhibition; at 40 µM; stronger effect = lower value. The method, boiled down:
as §1
% is scaled to controls: 0 for no effect and ±100 for the full control effect.

For `CC(=O)O[C@]1(C(C)=O)CC[C@H]2[C@@H]3C[C@H](C)C4=CC(=O)CC[C@]4(C)[C@H]3CC[C@@]21C`, the activity change, negative = inhibition in test [1] is 6.02%; in test [2] it was 5.14%; in test [3], 8.48%; in test [4], -27.2%; in test [5], 3.01%.

Turning to `CSCCC(NS(=O)(=O)c1ccc2c(c1)oc(=O)n2C)C(=O)N1CCN(Cc2ccccc2)CC1` (stereo not given), the activity change, negative = inhibition in test [1] was 5.95%; in test [2], 0%; in test [3] it was 5.3%; in test [4], -0.808%; in test [5], -0.457%.

As to `O=C(O)c1cc(-c2ccccc2)nc2ccccc12`, the activity change, negative = inhibition in test [1] is -0.016%; in test [2], -0.694%; in test [3], 2.96%; in test [4], -11.9%; in test [5] it was -0.668%.

Turning to `CCN(Cc1noc(C2CCC2)n1)C(=O)c1cc(C(C)C)n2ncnc2n1`, the activity change, negative = inhibition was -2.26% in test [1]; -1.72% in test [2]; 2.2% in test [3]; -6.91% in test [4]; -3.66% in test [5].

`COc1ccc2cc3n(c2c1)CC(C)(C(=O)NC1CCCCCC1)N(CC1CCCO1)C3=O` (stereo not given): the activity change, negative = inhibition was 4.96% in test [1]; 0% in test [2]; 5.22% in test [3]; -2.75% in test [4]; 3.06% in test [5].

As for `CCc1nc2c(c(NCCn3nc(C)c(CC)c3C)n1)CCNCC2`, the activity change, negative = inhibition in test [1] was -1.55%; in test [2], -1.15%; in test [3] it was -2.44%; in test [4], -10.7%; in test [5] it was -8.74%.

Turning to `CCC(C)NC(=O)c1ccc2c(=O)n(C(C)C)c3nn(CC(=O)c4ccc(C)cc4C)c(=O)n3c2c1` (stereo not given), the activity change, negative = inhibition in test [1] is 2.76%; in test [2], 0%; in test [3] it was 3.76%; in test [4], -1.99%; in test [5], 3.35%.

`O=S(=O)(O)c1ccc2cc(N=Nc3cc(S(=O)(=O)O)c4cccnc4c3O)ccc2c1`: the activity change, negative = inhibition in test [1] was -24.2%; in test [2] it was -13.7%; in test [3], -12.3%; in test [4], -23.7%; in test [5], -15.2%.

With `COc1ccc(N2C(=O)c3nc4ccccc4n3CC2(C)C(=O)NC2CCCCCC2)cc1` (stereo not given), the activity change, negative = inhibition in test [1] is 1.98%; in test [2], 0%; in test [3] it was 4.67%; in test [4] it was 1.62%; in test [5], -1.34%.

As to `CCCC1CCN(C(=O)c2coc(COc3ccc4ccc(OC)cc4c3)n2)C1` (stereo not given), the activity change, negative = inhibition in test [1] was -7.07%; in test [2] it was -0.093%; in test [3], -1.72%; in test [4] it was -9.52%; in test [5] it was -5.93%.

`Cc1ccccc1NC(=O)c1cc2n(n1)CC(c1ccc(Cl)cc1)OC2` (stereo not given): the activity change, negative = inhibition in test [1] is -7.87%; in test [2] it was -4.22%; in test [3], -2.75%; in test [4], -4.36%; in test [5], 8.33%.

For `OC[C@H]1C[C@@H](NCc2ccc(F)cc2)[C@H](O)[C@@H]1O`, the activity change, negative = inhibition in test [1] was -8.86%; in test [2] it was -8.47%; in test [3], -5.93%; in test [4], -9.06%; in test [5], -16.7%.

As to `Cc1nn(C(=O)CCCC(=O)N2CCC(CCOc3ccc(F)cc3)C2)c2ccccc12` (stereo not given), the activity change, negative = inhibition in test [1] was -5.27%; in test [2] it was -10.5%; in test [3] it was -6.36%; in test [4], -14.8%; in test [5] it was -10.4%.

For the molecule `CCN1CCN(c2ccc(C(=O)N3CCCC(c4ccccc4)CC3)cn2)CC1` (stereo not given), the activity change, negative = inhibition in test [1] was -2.83%; in test [2] it was -4.56%; in test [3], -7.07%; in test [4] it was -11.7%; in test [5], -1.49%.

On to `COCCCNC(=O)c1cc2n(n1)CC(C)(C(=O)NC1CCCC1)N(C)C2=O` (stereo not given), for which the activity change, negative = inhibition stood at 6.08% in test [1]; 0% in test [2]; 2.94% in test [3]; 7.2% in test [4]; 2.24% in test [5].

For `COc1cccc(C2c3cccn3-c3sc4c(c3CN2C(=O)Nc2ccccc2Br)CCCC4)c1` (stereo not given), the activity change, negative = inhibition was -4.02% in test [1]; 0% in test [2]; -0.688% in test [3]; -6.41% in test [4]; 2.89% in test [5].

`CC1(C)CC[C@]2(C(=O)O[C@@H]3O[C@H](CO)[C@@H](O)[C@H](O)[C@H]3O)CC[C@]3(C)C(=CCC4[C@@]5(C)C[C@@H](O)[C@H](O)C(C)(C)C5[C@H](O)C[C@]43C)[C@@H]2[C@@H]1O` (stereo not given in full): the activity change, negative = inhibition was 0% in test [1]; -1.27% in test [2]; -5.57% in test [3]; -12.9% in test [4]; -1.08% in test [5].

Consider `COc1ccc(-c2nc(-c3ccc(S(=O)(=O)N4CCCCC4)cc3)no2)cc1`, for which the activity change, negative = inhibition in test [1] was -0.984%; in test [2] it was 0%; in test [3], 5.28%; in test [4] it was 5.8%; in test [5], 3.33%.

Regarding `COc1ccc(N2C(=O)c3cc4ccccc4n3CC2(C)C(=O)NC2CCCC2)cc1` (stereo not given), the activity change, negative = inhibition is -2.91% in test [1]; 2.93% in test [2]; 0.246% in test [3]; -1.69% in test [4]; 2.48% in test [5].

For `COCCNC(=O)c1cc2n(n1)CC(C)(C(=O)NCCC(C)C)N(C)C2=O` (stereo not given), the activity change, negative = inhibition in test [1] came out at 2.57%; in test [2], 2.43%; in test [3], 7.18%; in test [4], 4.71%; in test [5], 3.4%.

For the molecule `CCc1cc2c(cc3n2CC(C)(C(=O)NC2CCCCC2)N(c2ccc(Cl)cc2)C3=O)s1` (stereo not given), the activity change, negative = inhibition is -2.65% in test [1]; 7.72% in test [2]; -0.29% in test [3]; -0.327% in test [4]; -1.56% in test [5].

Consider `CCOC(=O)C1CCCN(C(=O)C2CCc3nnc(C4CC4)n32)C1` (stereo not given), for which the activity change, negative = inhibition was -4.56% in test [1]; -3.61% in test [2]; -0.98% in test [3]; -7.7% in test [4]; 3.9% in test [5].

`COc1ccccc1CN1C(=O)c2nc3ccccc3n2CC1(C)C(=O)NC1CCCC1` (stereo not given): the activity change, negative = inhibition in test [1] was -3.41%; in test [2] it was 2.98%; in test [3] it was -3.15%; in test [4], -0.97%; in test [5], -6.55%.

`COc1cccc(N2C(=O)c3cc4occc4n3CC2(C)C(=O)NC2CCCCCCC2)c1` (stereo not given): the activity change, negative = inhibition in test [1] is -5.05%; in test [2] it was 0.198%; in test [3], -0.273%; in test [4] it was -7.73%; in test [5], -1.16%.

Take `COc1cc(CCO)ccc1O[C@@H]1O[C@H](CO)[C@@H](O)[C@H](O)[C@H]1O`: the activity change, negative = inhibition was -0.309% in test [1]; -7.27% in test [2]; 4.11% in test [3]; -13.4% in test [4]; -7.12% in test [5].

In the case of `O=C(NCc1ccncc1)C1CN(Cc2ccccn2)CC12CCOCC2` (stereo not given), the activity change, negative = inhibition in test [1] is -5.09%; in test [2] it was -8.73%; in test [3] it was -2.62%; in test [4] it was -12.1%; in test [5], -18%.

For the molecule `C=C1CCC2C(C)(C)CC(O)CC2(C)C1CCC(C)CC(=O)O` (stereo not given), the activity change, negative = inhibition in test [1] was -10.2%; in test [2], -7.43%; in test [3], 4.67%; in test [4] it was -22.1%; in test [5], -11.5%.

In the case of `COc1cc2c(Oc3ccc4[nH]c(C)cc4c3F)ncnc2cc1OCCCN1CCCC1`, the activity change, negative = inhibition is -5.47% in test [1]; 5.02% in test [2]; -38.1% in test [3]; -19.1% in test [4]; -3.74% in test [5].

Turning to `C=CC(C)(O)CC/C=C(/C)C(=O)OC1C(OC2OCC(OC3OC(CO)C(O)C(O)C3O)C(OC3OCC(O)C(OC4OC(C)C(O)C(O)C4O)C3O)C2O)COC(OC(=O)C23CCC(C)(C)CC2C2=CCC4C5(C)CCC(OC6OC(CO)C(OC7OC(CO)C(O)C(OC8OCC(O)C(O)C8O)C7O)C(O)C6O)C(C)(C)C5CCC4(C)C2(C)CC3O)C1O` (stereo not given), the activity change, negative = inhibition was determined as 0% in test [1]; 19.3% in test [2]; 6.43% in test [3]; 6.42% in test [4]; 6.44% in test [5].
